Common to all, as to type: cell-based, human
Experiment [1] concerns MDA-MB-231 cells. Briefly: Effect of antibody on tumor cell proliferation (CellTiter-Glo). The conditions noted are these: MDA-MB-231, 96 h. On the procedure: (§1) 3000 cells (breast cancer MDA-MB-231, prostate cancer PC-3 cells)/well were plated onto 96-well plates overnight, an antibody at a final concentration of 500 nM to 0.00128 nM (100 nM to 0.000256 nM, 100, 20, 4, 0.8, 0.16, 0.032, 0.0064, 0.00128, 0.000256 nM, respectively) was added; after a 5-fold dilution across 9 concentration points and culturing in a CO2 incubator at 37° C. for 96 h, half of the medium (100 μL) was discarded, and 100 μL of CellTiter-Glo Luminescent Cell Viability assay reagent (Promega, cat #G7570) was added to detect signal values on a BMG microplate reader. The inhibition of antibody on tumor cell growth was calculated by graphpad fitting based on the signal value and antibody concentration.
In general terms: Cellular ATP, detected with luciferase, serves as a proxy for viable cell number.

Experiment [2] has as its system PC-3 cells. The description is as above. The conditions noted are these: PC-3, 96 h. On the procedure: as §1
Experiment [3] deals with MDA-MB-231 cells. Briefly: Endocytosis capacity of murine monoclonal antibody (flow cytometry internalization). The settings on record: antibody 1.5 μg/mL. On the procedure:
(§2) The endocytosis capacity of the antibody was detected for 0.5 to 2 hours. MDA-MB-231 and PC3 cells were subjected to digestion with 5 mM EDTA, and plated at 4×10^4 cells/well after cell counting. After adding an Fc blocker (Human TruStain FcX™, Biolegend, 422302) and blocking at room temperature for 10 mins, a test antibody (1.5 μg/mL) was added, and the mixture was incubated at 4° C. for 30 mins, centrifuged, and washed twice with PBS+2% FBS, then the cells were divided into four equal portions (labeled as 0 h, 0.5 h, 1 h, 2 h), cells labeled as 0.5 h, 1 h, 2 h time points were added to a cell culture medium at 200 µL/well, and cultured at 37° C. for 0.5 h, 1 h, 2 h, respectively. Cells at 0 h point were centrifuged to remove supernatant, a secondary antibody (PE anti-human IgG Fc Antibody, Biolegend, 410708) was added, and the mixture was incubated at 4° C. for 30 mins, centrifuged, and washed twice with PBS+2% FBS, and detection was performed using a flow cytometer. After incubation of cells labeled as 0.5 h, 1 h, and 2 h points at 37° C. was completed, a secondary antibody was added (in the same steps as those at 0 h point), Geo-MFI of the signal under the same voltage was collected as detection signal at 0 h, and antibody internalization rate was calculated according to the following equation: Internalization (%)=(Geo-MFI (0 h)-Geo-MFI (0.5, 1, 2 h))/Geo-MFI (0 h)×100%.

Experiment [4] deals with PC3 cells. The experiment is described as above. The settings on record: antibody 1.5 μg/mL. On the procedure:
as §2

In experiment [5] the test system is MDA-MB-231 cells. The experiment can be described thus: Transwell tumor cell migration experiment. The settings on record: MDA-MB-231, antibody 10 μg/ml. On the procedure: In order to determine the effect of antibodies on tumor cell metastasis, the migration ability of tumor cells was examined in this study according to a transwell experiment. The specific cell migration experiment involved culturing and collecting MDA-MB-231 cells, washing them once with PBS, adjusting the density to 8×10^5 cells/mL, adding the antibody to be tested to the cells such that the working concentration thereof was 10 μg/ml, co-incubating for 30 mins, adding a cell suspension to the upper chamber of the transwell chamber, placing the transwell chamber in the incubator for 12-48 h, then removing the chamber (transwell chamber, to examine cell migration ability), immobilizing the cells, staining the cells with crystal violet for 15 mins, washing, air drying, mounting, and taking photos of 4-5 fields of view under a microscope, and counting the number or area of the stained cells using imageJ analysis software, the number or area was used as the basis for determining tumor cell migration.

The test system of experiment [6] is MDA-MB-231 cells. The experiment can be described thus: Endocytosis capacity of single B cell antibodies. The conditions noted are these: MDA-MB-231, 2 h at 37° C., antibody 1.5 μg/mL. On the procedure:
as §2, with “MDA-MB-231” for “MDA-MB-231 and PC3”, “at 2×10^4” for “at 4×10^4”, “to 200 μL of” for “to a”, “culture medium,” for “culture medium at 200 µL/well,”, “were centrifuged,” for “were centrifuged to remove supernatant,”, “h)-Geo-MFI (2” for “h)-Geo-MFI (0.5, 1, 2”

B1: 8C9: anti-CDCP1 murine monoclonal antibody (hybridoma); VH SEQ ID NO: 254, VL SEQ ID NO: 304 (antibody, V domains shown)
VH: EVQLKESGGGLVQPGGSLRISCATSGLTFTHYHMSWVRQPPGKAPEWLAIIRNKAYGYTTDYSASVRGRFTISRDDSQSILYLQMNTLRPEDSATYYCVREGGYGYDGTFAYWGQGTTVTVSS
VL: DIQMTQSPASLAVSLGQRATISCRASESVDNYGISFMNWFQQKPGQPPKLLIYAASNQGSGVPDRFSGSGSGTDFSLNIHPMEEDDTAMYFCQQSKEVPRTFGGGTKLEIK
modifications: 8C9 heavy chain variable region; 8C9 light chain variable region
As for B1, the “effect on tumor cell growth (FIG. 4a)” value in experiment [1] is reported as “did not exhibit an effect on tumor cell growth”. The “effect on tumor cell growth (FIG. 4b)” value in experiment [2] is “did not exhibit an effect on tumor cell growth”. The “Internalization MDA-MB-231 (%) 0.5 h” value in experiment [3] (MDA-MB-231, 0.5 h at 37° C.) is recorded as 26.56%. Besides, the “Internalization MDA-MB-231 (%) 1 h” value in experiment [3] (MDA-MB-231, 1 h at 37° C.) is on record as 37.08%. Further, in experiment [3] (MDA-MB-231, 2 h at 37° C.), the “Internalization MDA-MB-231 (%) 2 h” value amounted to 51.59%. Further, the “Internalization PC3 (%) 0.5 h” value in experiment [4] (PC3, 0.5 h at 37° C.) is listed as 24.63%. In experiment [4] (PC3, 1 h at 37° C.), the “Internalization PC3 (%) 1 h” value amounted to 39.13%. Besides, the “Internalization PC3 (%) 2 h” value in experiment [4] (PC3, 2 h at 37° C.) turned out to be 56.20%. The “effect on tumor cell migration (transwell, FIG. 4c)” value in experiment [5] is “better capability to inhibit tumor cell migration than SEQ135”.

B2: SB2: anti-CDCP1 antibody by single B cell technique; VH SEQ ID NO: 272, VL SEQ ID NO: 322 (antibody, V domains shown)
VH: DVKLVESGGGLVKPGGSLKLSCAASGFTFSSYTMSWVRQTPEKRLEWVATISSGGIYTYYPDSVKGRFTISRDNAKDTLYLQMNSLRSEDTAVYYCSSPHSYAISYGYFDYWGQGTTLTVSS
VL: DVVMTQTPLTLSITIGQPASISCRSSQSLLDIDGKTYLNWLLQRPGQSPKRLIYLVSELDSGVPDRFTGSGSGTDFTLRISGVEAEDLGIYYCWQGTHFPYTFGGGTKLEIK
modifications: SB2 heavy chain variable region; SB2 light chain variable region
With B2, in experiment [6], the “Internalization MDA-MB-231 (%)” value is listed as 77.69%.

B3: SB3: anti-CDCP1 antibody by single B cell technique; VH SEQ ID NO: 273, VL SEQ ID NO: 323 (antibody, V domains shown)
VH: DVKLVESGGGLVEPGGSLKLSCAASGFPFSSYTMSWVRQTPEKRLEWVATISSGGIYTYYPDSVKGRFTISRDNAKDTLYLQMSSLRSEDTAVYYCSSPHSYAISYGYFDYWGQGTTLTVSS
VL: DVVMTQTPLTLSITIGQPASISCRSSQSLLDFDGKTYLNWLLQRPGQSPKRLIYLVSELDSGVPDRFTGSGSGTDFTLKISGVEAEDLGIYYCWQGTHFPFTFGGGTKLEIK
modifications: SB3 heavy chain variable region; SB3 light chain variable region
With B3, the “Internalization MDA-MB-231 (%)” value in experiment [6] is 78.20%.

Source of the values: patent US20260250410A1, “ANTIBODY AND USE THEREOF” (SICHUAN HUIYU PHARMACEUTICAL CO., LTD., priority 2022, published 2026).
